Data on 56 molecules can be found in paper PMC4336329 (PLoS ONE, 2015).

About 14,000 (4.5%) of roughly 310,000 compounds showed an effect of 50% or more. The effect is printed as a negative number. The list shows a part of the results.
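Note: peak tail current of the secondary pulse compared with the same well before compound.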

The test deals with human ether-à-go-go-related gene (hERG) potassium channel (human, UniProt Q12809). The test is described as follows: primary screen, population patch clamp on CHO cells stably expressing hERG.
Sequence of human ether-à-go-go-related gene (hERG) potassium channel (Q12809 whole entry, looked up): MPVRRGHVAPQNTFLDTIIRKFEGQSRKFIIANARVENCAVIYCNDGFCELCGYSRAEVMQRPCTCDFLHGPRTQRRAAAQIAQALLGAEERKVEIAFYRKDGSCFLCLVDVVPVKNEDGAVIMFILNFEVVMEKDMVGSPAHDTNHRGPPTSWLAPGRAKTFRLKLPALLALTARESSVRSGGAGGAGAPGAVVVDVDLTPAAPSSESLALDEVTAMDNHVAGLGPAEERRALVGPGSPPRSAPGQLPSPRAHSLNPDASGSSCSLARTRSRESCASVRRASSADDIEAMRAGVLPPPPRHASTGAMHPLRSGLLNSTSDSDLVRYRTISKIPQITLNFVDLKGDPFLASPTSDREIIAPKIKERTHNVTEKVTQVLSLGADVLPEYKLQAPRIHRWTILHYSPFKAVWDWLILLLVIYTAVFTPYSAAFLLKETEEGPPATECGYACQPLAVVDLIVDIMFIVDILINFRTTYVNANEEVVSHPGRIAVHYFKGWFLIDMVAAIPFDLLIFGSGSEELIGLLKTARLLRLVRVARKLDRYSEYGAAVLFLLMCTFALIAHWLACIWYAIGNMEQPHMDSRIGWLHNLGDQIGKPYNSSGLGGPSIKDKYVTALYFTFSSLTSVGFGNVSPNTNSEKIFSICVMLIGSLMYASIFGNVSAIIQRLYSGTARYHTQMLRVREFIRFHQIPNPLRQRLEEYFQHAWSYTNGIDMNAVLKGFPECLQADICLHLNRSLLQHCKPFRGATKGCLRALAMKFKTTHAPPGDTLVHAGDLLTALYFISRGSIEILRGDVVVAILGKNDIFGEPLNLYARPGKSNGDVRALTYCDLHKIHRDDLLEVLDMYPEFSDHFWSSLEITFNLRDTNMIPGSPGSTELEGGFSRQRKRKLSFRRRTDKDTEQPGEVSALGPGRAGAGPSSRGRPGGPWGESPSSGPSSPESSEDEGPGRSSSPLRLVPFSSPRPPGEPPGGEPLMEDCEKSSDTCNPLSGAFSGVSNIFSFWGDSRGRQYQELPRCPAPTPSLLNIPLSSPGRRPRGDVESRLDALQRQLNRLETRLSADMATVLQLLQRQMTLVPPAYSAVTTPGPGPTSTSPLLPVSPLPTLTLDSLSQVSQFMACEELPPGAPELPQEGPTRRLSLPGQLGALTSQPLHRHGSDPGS
On to `COc1ccc(CSc2nnc(C)n2N)cc1`, for which the “hERG current change (%, negative = inhibition) at 10uM” value is 1.59%.
To `CCn1ccnc1CN1CCCC(C(=O)c2cc(F)ccc2OC)C1` (centres unmarked) belongs -33%.
To `O=c1[nH]c(=O)n(Cc2ccc(F)cc2)c(O)c1C=NCCN1CCCCC1` belongs -17.2%; to `Cc1cc(NC(=O)CSc2nc(=O)n(CCN(C)C)c3c2CCCC3)no1`, -6.91%; to `O=[N+]([O-])c1ccc(S(=O)(=O)N(CC(O)CN2CCCCC2)c2ccccc2)cc1` (centres unmarked), -80.9%.
To `Cc1cc(C)cc(C(=O)Nc2cccnc2Cl)c1` belongs -5.12%.
Regarding `COc1ccc(NC(=O)CC(NCc2ccccn2)C(=O)O)cc1` (centres unmarked), the “hERG current change (%, negative = inhibition) at 10uM” value is 15.5%.
Turning to `Cc1cc(C(=O)NC2CC(C)(C)Cc3c2cnn3-c2cccc(F)c2)n(C)n1` (centres unmarked), the “hERG current change (%, negative = inhibition) at 10uM” value is on record as -32.6%.
To `CCc1ccc(N2C(=O)C3CCCN3C2=S)cc1` (centres unmarked) belongs 0.601%.
Take `CC(C)c1ccc(NC(=S)N2CCCC2)cc1`: the “hERG current change (%, negative = inhibition) at 10uM” value was -0.836%.
Take `CCC(=O)c1ccc(OCC(=O)OCC(=O)NCC2CCCO2)cc1` (centres unmarked): the “hERG current change (%, negative = inhibition) at 10uM” value is listed as 16.4%.
To `CCc1cccc(NC(=S)N(CCN(C)C)C(C)c2ccncc2)c1` (centres unmarked) belongs -44%; to `Cn1c(Cc2c[nH]c3ccccc23)n[nH]c1=S`, 9.86%.
To `O=C(COC(=O)CCNS(=O)(=O)c1ccc(Cl)cc1)NCc1ccco1` belongs -19.1%; to `CC(C)NC1=C(Cl)C(=O)c2ccccc2C1=O`, 4.34%.
Turning to `CC(=O)Nc1cccc(NC(=O)C2CCCN2C(=O)Nc2cccc(C)c2)c1` (centres unmarked), the “hERG current change (%, negative = inhibition) at 10uM” value was determined as 7.98%.
Under `CCS(=O)(=O)N1CCCC(C(=O)NCc2ccc3c(c2)OCO3)C1` (centres unmarked) stands -6.28%.
For the molecule `CN(C)c1nc(N)nc(N(c2ccccc2)c2ccccc2)n1`, the “hERG current change (%, negative = inhibition) at 10uM” value is recorded as -8.13%.
To `O=C(Cc1ccsc1)NCC(=O)Nc1ccc(F)c(F)c1` belongs -4.33%; to `Cc1ccc(C2Nc3ccc4ccccc4c3C3=C2C(=O)CC(C)(C)C3)o1` (centres unmarked), 2.46%.
In the case of `Cc1cc2cc(CN(Cc3ccco3)C(=O)C3CCCCC3)c(=O)[nH]c2cc1C`, the “hERG current change (%, negative = inhibition) at 10uM” value is -18.1%.
On to `CCOc1ccc(Cl)cc1S(=O)(=O)N1CCC(C(=O)N2CCCC2)CC1`, for which the “hERG current change (%, negative = inhibition) at 10uM” value is recorded as -2.33%.
As for `CNC(=O)c1ccsc1NC(=O)CCS(=O)(=O)c1ccc(Cl)cc1`, the “hERG current change (%, negative = inhibition) at 10uM” value is -18.1%.
As for `CN(C)/C=C1/Sc2ccccc2C1=O`, the “hERG current change (%, negative = inhibition) at 10uM” value is 2.59%.
On to `Cc1ccc2sc(N(CCCN(C)C)C(=O)CCS(=O)(=O)c3ccccc3)nc2c1C`, for which the “hERG current change (%, negative = inhibition) at 10uM” value was -6.04%.
Under `CCc1ccc(NC(=O)C(=O)NCCOc2ccccc2Cl)cc1` stands 8.26%; under `CC(=O)c1ccc(N2CCN(C(=O)c3cccs3)CC2)c(F)c1`, -28.3%.
Under `O=C(CCn1c(=O)c2sccc2n(CC(=O)NCc2ccco2)c1=O)NCc1ccccc1` stands 9.62%.
On to `N/C(=N\NC(=O)Nc1ccccc1)c1ccccn1`, for which the “hERG current change (%, negative = inhibition) at 10uM” value is listed as -4.74%.
Consider `O=C(Nc1ccc(Cl)c(C(F)(F)F)c1)[C@@H]1CC=C[C@@H]2CCN(Cc3ccc(Cl)c(Cl)c3)C(=O)[C@@H]21`, for which the “hERG current change (%, negative = inhibition) at 10uM” value came out at 23.4%.
For the molecule `Cc1ccc(-n2c(SCC(=O)N/N=C/C=C/c3ccccc3[N+](=O)[O-])nc3ccccc3c2=O)cc1`, the “hERG current change (%, negative = inhibition) at 10uM” value is 4.57%.
Under `Cc1ccc2c(c1Br)/C(=N/N1C(=O)c3ccccc3C1=O)C(=O)N2` stands 19.8%; under `Cc1ccc(C(=O)C(C)OC(=O)c2nc(Cl)ccc2Cl)cc1` (centres unmarked), 8.71%.
For the molecule `O=C(O)c1cccc(NC(=O)c2cc(-c3cccc(Cl)c3)nc3ccccc23)c1`, the “hERG current change (%, negative = inhibition) at 10uM” value was 27.3%.
On to `COc1ccccc1N=Nc1c(C)n[nH]c1C`, for which the “hERG current change (%, negative = inhibition) at 10uM” value stood at 15.7%.
Under `Cc1ccc(N(C)C(=O)c2ccc3c(Cl)c4c(nc3c2)CCC4)cc1C` stands 1.04%.
Under `COC(=O)CN1C(=O)C(O)(CC(=O)c2ccc(Br)cc2)c2ccccc21` (centres unmarked) stands -8.19%.
With `COC(=O)C1=C(N)OC2=C(C(=O)CC(C)(C)C2)C1c1cccnc1` (centres unmarked), the “hERG current change (%, negative = inhibition) at 10uM” value is -1.7%.
To `Cc1cc(C)n2c(nc3ccccc32)c1C(=O)NCc1ccccc1` belongs 15.9%; to `COCCn1c(SCc2ccc(F)cc2)nc2c1c(=O)[nH]c(=O)n2C`, -6.83%.
Take `CCCS(=O)(=O)N1CCCC(C(=O)NCCCN(C)Cc2ccccc2)C1` (centres unmarked): the “hERG current change (%, negative = inhibition) at 10uM” value is reported as 8.12%.
For the molecule `COC(=O)c1ccc(NC(=O)c2cnc3scc(C)n3c2=O)cc1`, the “hERG current change (%, negative = inhibition) at 10uM” value was -14.8%.
Under `CCOc1ccc(CC(=O)NNC(=S)Nc2ccccc2)cc1Br` stands 7.82%; under `O=C(NCC(c1ccco1)N1CCN(c2ccc(F)cc2)CC1)c1ccc2c(c1)OCO2` (centres unmarked), 4.55%.
To `O=c1[nH]c2ccccc2n1CCCOc1ccccc1` belongs 4.34%.
Consider `CCS(=O)(=O)Nc1cccc(C2=NN(S(=O)(=O)c3ccc(C)cc3)C(c3ccco3)C2)c1` (centres unmarked), for which the “hERG current change (%, negative = inhibition) at 10uM” value is given as 12.9%.
As to `CC1=C(C(=O)OC2CCCCC2)C(c2ccc(F)cc2)NC(=O)N1` (centres unmarked), the “hERG current change (%, negative = inhibition) at 10uM” value is listed as -12%.
`C=CCN(C(=O)CCC(=O)Nc1cc(C)on1)C(C(=O)NC1CCCC1)c1ccc(OC)c(OC)c1` (centres unmarked): the “hERG current change (%, negative = inhibition) at 10uM” value was found to be 15.4%.
Under `O=C(CN1CCN(c2ccccc2F)CC1)N1CCc2ccccc21` stands 2.97%; under `COc1ccc(-c2c(C#N)sc(C(N)=O)c2-c2ccc(OC)cc2)cc1`, 4.84%; under `CCOc1ccc(NC(=O)CN(C)C(=O)CCNC(=O)c2ccccc2Cl)cc1OCC`, 0.127%.
Regarding `Cc1cc(N2CCOCC2)nc2ccc(NC(=S)NCCN(C)C)cc12`, the “hERG current change (%, negative = inhibition) at 10uM” value came out at 13.7%.
Regarding `COc1ccc(-c2nnc(SC(C)C(=O)Nc3c(C)n(C)n(-c4ccccc4)c3=O)o2)cc1` (centres unmarked), the “hERG current change (%, negative = inhibition) at 10uM” value is on record as 14.6%.
As to `Cc1nc(-c2ccccc2)c(Cc2ccccc2O)c(=O)[nH]1`, the “hERG current change (%, negative = inhibition) at 10uM” value is given as 17.2%.
As for `COC(=O)N/N=C/c1cn(Cc2ccc(F)cc2)c2ccccc12`, the “hERG current change (%, negative = inhibition) at 10uM” value came out at 5.67%.
Consider `CCOC(=O)c1cc2sccc2n1Cc1ccccc1`, for which the “hERG current change (%, negative = inhibition) at 10uM” value was 1.89%.
